Data reported in PubChem BioAssay AID588579 (National Center for Advancing Translational Sciences (NCATS), 2011).
Several values for one entry are separate records, joined by “and”; a condition that tells them apart may be missing. Equal values may be shown once. About 2,200 (0.55%) of roughly 400,000 compounds were called active. The inconclusive results got no clear call from the source; some entries with a clear call stand among them for comparison. Calls come from the whole dose curve; as a rule, active = well fitted inhibition curve with a large enough effect; inconclusive = small, poorly fitted or top-dose-only effect, or another doubt; inactive = no such curve, though single readings can be large or run the other way. Potencies beside an inconclusive call are fits to weak or partial responses and may not hold up.

Molecular target: DNA polymerase kappa (Homo sapiens) (UniProt Q9UBT6)
UniProt Q9UBT6, sequence (Q9UBT6 whole entry, looked up): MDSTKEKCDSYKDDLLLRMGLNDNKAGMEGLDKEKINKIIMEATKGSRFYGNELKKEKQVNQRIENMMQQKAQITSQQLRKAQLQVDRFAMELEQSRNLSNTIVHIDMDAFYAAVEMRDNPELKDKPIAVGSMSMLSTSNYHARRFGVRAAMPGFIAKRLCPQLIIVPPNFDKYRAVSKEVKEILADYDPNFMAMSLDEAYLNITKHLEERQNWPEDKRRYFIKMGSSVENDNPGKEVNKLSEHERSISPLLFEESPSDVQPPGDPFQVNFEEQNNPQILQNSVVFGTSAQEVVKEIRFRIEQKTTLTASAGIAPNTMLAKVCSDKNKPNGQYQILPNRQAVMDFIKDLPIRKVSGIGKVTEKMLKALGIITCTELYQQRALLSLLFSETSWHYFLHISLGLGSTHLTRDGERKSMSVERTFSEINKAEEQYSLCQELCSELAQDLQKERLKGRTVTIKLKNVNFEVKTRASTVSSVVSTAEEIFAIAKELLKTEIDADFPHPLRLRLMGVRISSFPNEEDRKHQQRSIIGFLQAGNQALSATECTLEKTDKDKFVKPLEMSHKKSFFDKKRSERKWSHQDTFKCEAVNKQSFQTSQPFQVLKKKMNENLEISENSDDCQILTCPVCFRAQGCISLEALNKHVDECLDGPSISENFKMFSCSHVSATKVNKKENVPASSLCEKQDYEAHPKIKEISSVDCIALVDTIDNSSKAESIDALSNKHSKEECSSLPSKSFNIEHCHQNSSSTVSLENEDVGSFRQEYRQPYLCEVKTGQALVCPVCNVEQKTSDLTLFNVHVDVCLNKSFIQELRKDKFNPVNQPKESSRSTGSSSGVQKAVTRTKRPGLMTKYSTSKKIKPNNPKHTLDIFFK
Test: qHTS for Inhibitors of Polymerase Kappa
Settings: purified Pol kappa, fluorescent DNA synthesis assay, 10 min; series mostly up to 107 µM
How it was run: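 Enzyme at 10 nM met test compounds for 15 min at room temperature. Substrate addition (50 nM final) began the reaction, which was monitored by fluorescence at 0 and 10 min.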
Potency is the fitted concentration of half-maximal effect; tags give direction and shape of the fitted curve.

| SMILES | Potency |
| --- | --- |
| COc1cccc(-c2nc3c(C#N)c[nH]n3c2NC2CCCC2)c1OC | inactive |
| COc1cc(/C=C/C(=O)OCC(=O)Nc2ccc(S(N)(=O)=O)cc2)ccc1O | inconclusive: 100 µM [inhibitor, single point] |
| O=c1cc(-c2ccc(O)cc2)oc2cc(O[C@H]3OC(CO)C(O)C(O)C3O)cc(O)c12 (stereo not given in full) | inconclusive: 28.2 µM [inhibitor, partial curve, poor fit] |
| On1c(-c2ccco2)nc2c1CCc1nonc1-2 | inconclusive: 79.4 µM [inhibitor, partial curve, poor fit] |
| Cn1nc(C(F)(F)F)cc1-c1ccc(S(N)(=O)=O)s1 | inactive |
| CC(C)(Sc1ccc(CCN(CCCCC2CCCCC2)C(=O)NC2CCCCC2)cc1)C(=O)O | inconclusive: 11.2 µM [inhibitor, single point] and inconclusive: 37.7 µM [inhibitor, single point] |
| COc1cc(OC)cc(C(=O)OCC(=O)NCc2ccco2)c1 | inactive |
| O=c1oc2c(-c3ccc([N+](=O)[O-])cc3)cc(O)cc2s1 | inconclusive: 100 µM [inhibitor, single point] |
| COC/C=C/C1=CC2=CC(=O)C(C)(OC(=O)c3cnc4ccccc4n3)C(=O)C2=CN1Cc1ccc(OC)cc1 (stereo not given) | inconclusive: 70.8 µM [inhibitor, single point] |
| CCOc1ccc(NC(=O)c2cc(S(=O)(=O)N3CCCC3)c[nH]2)cc1 | inconclusive: 89.1 µM [inhibitor, single point] |
| CCOc1ccc(C(=O)Cc2ccc3oc(C(=O)O)cc3c2)c(O)c1 | inconclusive: 89.1 µM [inhibitor, single point] |
| O=C(COC(=O)C12CC3CC(CC(O)(C3)C1)C2)NC(=O)NCc1ccco1 | inconclusive: 79.4 µM [inhibitor, partial curve, poor fit] |
| COc1ccc(CCn2c(=N)c(C(=O)NCc3ccco3)cc3c(=O)n4ccccc4nc32)cc1OC | inconclusive: 79.4 µM [inhibitor, single point] |
| COc1ccc(/C=C/c2cc[n+](C)c3ccccc23)cc1OC | inconclusive: 50.1 µM [inhibitor, partial curve, poor fit] |
| Cc1ccc(C)c(NS(=O)(=O)c2ccc3[nH]c(=O)oc3c2)c1 | inconclusive: 89.1 µM [inhibitor, partial curve, poor fit] |
| CCOC(=O)c1cnc(-n2nc(C)cc2C)nc1Oc1ccccc1F | inactive |
| COC(CNC(=O)C1CCN(S(=O)(=O)c2ccc3nc4c(c(C(=O)O)c3c2)CC(C)CC4)CC1)OC (stereo not given) | inconclusive: 100 µM [inhibitor, single point] |
| Cc1ccc(C2(C)NC(=O)N(CC(=O)NCCN3C(=O)S/C(=C\c4cccnc4)C3=O)C2=O)cc1 (stereo not given) | inconclusive: 112 µM [inhibitor, partial curve, poor fit] |
| CN(C)c1ccc(/C=C2/CCCc3c2nc2ccccc2c3C(=O)O)cc1 | active: 79.4 µM |
| O=[N+]([O-])c1ccc(Cl)c(-c2ccc(/C=N/c3c(-c4ccco4)nc4ccccn34)o2)c1 | inactive |

| SMILES | Potency |
| --- | --- |
| C/C(=C\c1ccc(C(=O)O)cc1)c1ccc2c(c1)C(C)(C)CCC2(C)C | inconclusive: 37.7 µM [inhibitor, single point] |
| C=C(C)C(=O)Nc1cccc(C2=NOC3(C2)C[C@H](C(N)=O)N(C(=O)CC)C3)c1 (stereo not given in full) | active: 79.4 µM |
| O=C(O)c1c[nH]c2ccc(S(=O)(=O)N3CCN(c4ccc(F)cc4)CC3)cc2c1=O | inconclusive: 89.1 µM [inhibitor, single point] |
| CC(C)OCCCn1c(-c2ccc(Br)cc2)c[nH]c1=S | inactive |
| COc1ccc(/C=N/Nc2cc(C)nc3ccc(OC)cc23)c(OC)c1 | inconclusive: 50.1 µM [inhibitor, partial curve, poor fit] |
| Cc1cccc(C)c1NC(=O)C(=O)NCC(c1cccnc1)N1CCc2ccccc21 (stereo not given) | inactive |
| O=C(C1CCC(Cn2c(=O)c3sccc3n(Cc3ccccc3F)c2=O)CC1)N1CCOCC1 (stereo not given) | inactive |
| CN(C)c1ccc(C(=C2C=CC(=[N+](C)C)C=C2)c2ccc(N(C)C)cc2)cc1 | inconclusive: 15.8 µM [inhibitor, partial curve] |
| Cc1cccc(-n2nc3c(c2NC(=O)c2ccco2)CSC3)c1C | active: 28.2 µM |
| O=C(Nc1ccc([N+](=O)[O-])cc1)Nc1cnccn1 | inactive |
| O=C(Nc1ccc(Oc2cccnc2)cc1)c1cccc([N+](=O)[O-])c1 | inconclusive: 89.1 µM [inhibitor, single point] |
| COc1cccc(N2CC(NS(=O)(=O)c3cccs3)CC2=O)c1 (stereo not given) | inconclusive: 89.1 µM [inhibitor, partial curve, poor fit] |
| O=c1[nH]cc(N=Cc2cc(Cl)cc(Cl)c2O)c(=O)[nH]1 | inconclusive: 79.4 µM [inhibitor, partial curve, poor fit] |
| CC1=CC2=NC(=O)/C(=C\c3cccn3CCOc3cccc(C)c3)C(=N)N2O1 | inconclusive: 100 µM [inhibitor, single point] |
| O=S(=O)(c1ccccc1)N1CCC[C@@]2(CCN(Cc3cc(C(F)(F)F)cc(C(F)(F)F)c3)C2)C1 | inconclusive: 15.8 µM [inhibitor, partial curve] |
| Cc1ccc(-n2nnnc2SCC(=O)NNC(=O)c2ccc([N+](=O)[O-])cc2)cc1 | inconclusive: 89.1 µM [inhibitor, single point] |
| O=C(COC(=O)/C=C/c1ccc(F)cc1)Nc1nnc(-c2ccccc2)o1 | inconclusive: 89.1 µM [inhibitor, single point] |
| Clc1ccc(N2CCN(Cc3c[nH]c4ncccc34)CC2)cc1 | inconclusive: 1.26 µM [inhibitor, partial curve, poor fit] and inconclusive: 37.7 µM [inhibitor, single point] |
| Cc1cccc(Nc2nc3ccccc3s2)c1C | inactive |
| COc1cc(NC(=O)c2ccccc2)c(OC)cc1NC(=O)CSc1[nH]c(=O)cc(C)c1C#N | inactive |
